In PubChem BioAssay (NCATS):
The shares of active, inactive and inconclusive entries below differ from those in the screen. For some of these results: Where the call is inconclusive, the potency comes from a doubtful curve fit. For some of these results: A note “side channel” means that the fit belongs to a control or component signal, not to the main read-out. Active and inactive are the calls of the source. Unless noted, the call rests on the fitted dose curve; in most records, active means well fitted curve in either direction with a large enough effect (not every such curve was filed as active); inconclusive means small, poorly fitted or top-dose-only effect, or another doubt; inactive means flat fitted curve, though single readings scatter.

System: not listed separately
Assay: NFAT Signaling Pathway (AID 444);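 further: carbachol stimulus at about its EC50 of 1 µM final; on the % scale 0 is the no-effect control and ±100 the full control effect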
Details: Jurkat NFAT-bla M1, carbachol, beta-lactamase ratio, 5 h; at 17.2 µM (top of the series) unless noted
Procedure, shortened: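 Jurkat cells carrying an NFAT-driven β-lactamase reporter and co-transfected muscarinic M1 receptor were treated with compound plus carbachol (1 uM final, an EC50 level) for 5 h at 37 °C. CCF4 loading followed for 1 h at RT; 460/530 nm ratio gave %activity.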
Tags describe the fitted curve by direction and shape or compound fluorescence and quenching.

Question: For `CN1CCN(c2ncc3nc(-c4cc(F)cc(F)c4)c(=O)n(Cc4cccs4)c3n2)CC1`, which activity change, negative = inhibition is on record?
Answer: active: 168% [activator] [at 7.69 µM]

Question: Which activity change, negative = inhibition does the source give for `CN(C)c1ncc2nc(-c3ccc(Cl)cc3)c(=O)n(Cc3ccc(F)cc3)c2n1` here?
Answer: active: 137% [activator] [at 7.69 µM]

Question: With `N#Cc1cccc(-c2nc3cnc(N4CCOCC4)nc3n(C3CC3)c2=O)c1` as the compound, how does the activity change, negative = inhibition read?
Answer: inconclusive: 132% [activator] [at 7.69 µM]

Question: Which activity change, negative = inhibition does the source give for `COCCNc1ncnc2ccc(-c3cccc(NS(C)(=O)=O)c3)cc12` here?
Answer: inconclusive: 49.5% [activator] [at 7.69 µM]

Question: Which activity change, negative = inhibition does the source give for `Cc1cnc(CNc2nc(-c3ccoc3)nc3ccccc23)cn1` here?
Answer: inconclusive: -35.1% [inhibitor] [at 7.69 µM]

Question: For `COc1ccc(-c2nc3cnc(OCc4ccccc4)nc3n(CCC#N)c2=O)cc1`, which activity change, negative = inhibition is on record?
Answer: inconclusive: 154% [activator] [at 7.69 µM]

Question: For `O=c1c(-c2ccc(Cl)cc2)nc2cnc(N3CCNCC3)nc2n1Cc1cccs1`, which activity change, negative = inhibition is on record?
Answer: inconclusive: 63.9% [activator] [at 7.69 µM]

Question: With `COc1cccc(Cn2c(=O)c(-c3ccc(Cl)cc3)nc3cnc(N4CCOCC4)nc32)c1` as the compound, how does the activity change, negative = inhibition read?
Answer: inconclusive: 160% [activator] [at 7.69 µM]

Question: With `COc1cccc(-c2ccc3ncnc(NCc4ccccc4)c3c2)c1` as the compound, how does the activity change, negative = inhibition read?
Answer: inconclusive: -52.4% [inhibitor] [at 7.69 µM]

Question: Which activity change, negative = inhibition does the source give for `CN(C)c1ccc(-c2ccc3ncnc(NC4CC4)c3c2)cc1` here?
Answer: inactive: -2.46% [at 7.69 µM]

Question: Which activity change, negative = inhibition does the source give for `CCNc1ncc2nc(-c3cc(F)cc(F)c3)c(=O)n(C)c2n1` here?
Answer: inconclusive: 97.8% [activator] [at 7.69 µM]

System: not listed separately
Assay: Stat Signaling Pathway (AID 446);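 further: ME-180 cervical cancer cells given 40 pM IL-6 alongside compound; SIE-controlled beta-lactamase reporter measured as 460/530 nm FRET emission ratio; top concentration of the series differs between compounds; on the % scale 0 is the no-effect control and ±100 the full control effect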
Details: ME-180 SIE beta-lactamase reporter, IL-6 stimulated, 5 h; at 7.69 µM (top of the series) unless noted
Procedure, shortened: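 Emission at 460 and 530 nm (excitation 405 nm) reports SIE-controlled beta-lactamase in ME-180 cells. Cells received compound with 40 pM IL-6 for 5 hrs at 37 C; data scaled between 300 pM IL-6 and 125 nM JAK-inhibitor controls.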

Question: For `CN1CCN(c2ncc3nc(-c4cc(F)cc(F)c4)c(=O)n(Cc4cccs4)c3n2)CC1`, which activity, negative = inhibition is on record?
Answer: inconclusive: 172% [activator]

Question: Which activity, negative = inhibition does the source give for `CN(C)c1ncc2nc(-c3ccc(Cl)cc3)c(=O)n(Cc3ccc(F)cc3)c2n1` here?
Answer: inconclusive: 193% [activator]

Question: Which activity, negative = inhibition does the source give for `N#Cc1cccc(-c2nc3cnc(N4CCOCC4)nc3n(C3CC3)c2=O)c1` here?
Answer: inconclusive: 125% [activator]

Question: For `COc1ccc(-c2nc3cnc(OCc4ccccc4)nc3n(CCC#N)c2=O)cc1`, which activity, negative = inhibition is on record?
Answer: inconclusive: 64.9% [activator]

Question: For `O=c1c(-c2ccc(Cl)cc2)nc2cnc(N3CCNCC3)nc2n1Cc1cccs1`, which activity, negative = inhibition is on record?
Answer: inconclusive: 295% [activator]

Question: With `COc1cccc(Cn2c(=O)c(-c3ccc(Cl)cc3)nc3cnc(N4CCOCC4)nc32)c1` as the compound, how does the activity, negative = inhibition read?
Answer: inconclusive: 216% [activator]

Question: With `COc1cccc(-c2ccc3ncnc(NCc4ccccc4)c3c2)c1` as the compound, how does the activity, negative = inhibition read?
Answer: inconclusive: -44.2% [inhibitor]

Question: Which activity, negative = inhibition does the source give for `FC(F)(F)c1ccccc1-c1nc(-n2ccnc2)c2ccccc2n1` here?
Answer: inactive: -3.35%

Question: For `CCNc1ncc2nc(-c3cc(F)cc(F)c3)c(=O)n(C)c2n1`, which activity, negative = inhibition is on record?
Answer: inconclusive: 99.9% [activator]

Biological target: Mitogen-activated protein kinase 10 (Mus musculus) (UniProt Q61831)
Assay: JNK3 AlphaScreen Assay (AID 530);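 further: kinase came from lysate of stimulated human HepG2 cells; signal reports phosphorylation of biotinylated GST-cJun 1-79 at Ser73 with 10 µM ATP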; further: potency means the concentration at half of the fitted maximal effect; on activity change, negative = inhibition: on the % scale 0 is the no-effect control and ±100 the full control effect
Details: JNK3 lysate, c-Jun phosphorylation; activity change, negative = inhibition: at 57.1 µM (top of the series)
Procedure, shortened: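 Phosphorylation of biotinylated GST-cJun(1-79) at Ser73 is measured by AlphaScreen proximity luminescence. Enzyme is JNK3 in HepG2 lysates activated with interleukin-1beta and tumor necrosis factor alpha; ATP is 10 uM final.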

Question: For `CN1CCN(c2ncc3nc(-c4cc(F)cc(F)c4)c(=O)n(Cc4cccs4)c3n2)CC1`, which “activity change, negative = inhibition” value is on record?
Answer: inactive: 22.9%

Question: With `O=c1c(-c2ccc(Cl)cc2)nc2cnc(N3CCNCC3)nc2n1Cc1cccs1` as the compound, how does the Potency read?
Answer: inconclusive: 10 µM [activator, partial curve]

Question: With `COc1ccc2[nH]cc(CCNc3ncnc4ccc(-c5cccnc5)cc34)c2c1` as the compound, how does the Potency read?
Answer: inconclusive: 31.6 µM [inhibitor, single point]

Question: For `CN(C)c1ccc(-c2cncnc2N(C)Cc2ccco2)cc1`, which Potency is on record?
Answer: inconclusive: 25.1 µM [inhibitor, single point]

Biological target: 3',5'-cyclic-AMP phosphodiesterase 4B (Homo sapiens) (UniProt Q07343)
UniProt Q07343, sequence (Q07343 whole entry, looked up): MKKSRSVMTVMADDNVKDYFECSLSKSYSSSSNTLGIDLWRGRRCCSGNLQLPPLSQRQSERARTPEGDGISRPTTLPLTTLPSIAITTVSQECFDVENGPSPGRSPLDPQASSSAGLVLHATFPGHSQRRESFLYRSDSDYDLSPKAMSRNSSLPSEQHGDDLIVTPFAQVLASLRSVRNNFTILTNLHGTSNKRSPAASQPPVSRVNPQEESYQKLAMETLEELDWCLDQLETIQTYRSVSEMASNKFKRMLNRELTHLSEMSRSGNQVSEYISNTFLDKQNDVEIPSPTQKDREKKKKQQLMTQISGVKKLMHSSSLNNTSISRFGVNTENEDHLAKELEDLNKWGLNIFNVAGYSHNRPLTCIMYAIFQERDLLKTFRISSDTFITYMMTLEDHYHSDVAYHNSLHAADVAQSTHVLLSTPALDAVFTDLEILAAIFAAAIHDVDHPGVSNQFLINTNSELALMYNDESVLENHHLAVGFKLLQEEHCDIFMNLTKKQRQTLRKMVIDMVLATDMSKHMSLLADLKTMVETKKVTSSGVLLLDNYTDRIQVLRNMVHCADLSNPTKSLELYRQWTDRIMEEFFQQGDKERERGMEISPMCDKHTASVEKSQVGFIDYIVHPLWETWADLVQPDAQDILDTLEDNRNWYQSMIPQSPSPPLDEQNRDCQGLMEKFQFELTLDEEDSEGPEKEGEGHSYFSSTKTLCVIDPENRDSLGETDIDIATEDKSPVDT
Assay: qHTS Assay for Inhibitors of PDE-IV (AID 607; active means well fitted activation curve with a large enough effect in the main read-out, with a control signal flat, not every such curve was filed as active; inconclusive means small, poorly fitted or top-dose-only effect, or effect the other way, or a change in a side signal; further: potency means the concentration at half of the fitted maximal effect; on activation (PDE inhibition): % of control where 0% means no effect)
Details: HEK293 ACTOne CNG channel cells, membrane potential fluorescence; activation (PDE inhibition): at 22.9 µM (top of the series)
Procedure, shortened: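 The readout is membrane depolarisation from a cAMP-sensing CNG channel, detected with a potential dye at ex 535/em 590. Cells were HEK293-derived (endogenous PDE-IV) at 1000 cells/well, titrated up to 22.9 uM final.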

Question: With `COc1cccc(Cn2c(=O)c(-c3ccc(Cl)cc3)nc3cncnc32)c1` as the compound, how does the Potency read?
Answer: inconclusive: 5.01 µM [activator, partial curve]

Question: Which “activation (PDE inhibition)” value does the source give for `CN(C)c1ncc2nc(-c3ccc(Cl)cc3)c(=O)n(Cc3ccc(F)cc3)c2n1` here?
Answer: inactive: 4.37%

Question: Which “activation (PDE inhibition)” value does the source give for `Cc1cnc(CNc2nc(-c3ccoc3)nc3ccccc23)cn1` here?
Answer: inactive: 18.8%

Question: Which Potency does the source give for `Fc1ccc(Nc2ncnc3ccc(-c4ccoc4)cc23)cc1` here?
Answer: inconclusive: 10 µM [activator, single point]

Question: Which Potency does the source give for `CCNc1ncc2nc(-c3cn(C)c4ccccc34)c(=O)n(-c3ccccc3)c2n1` here?
Answer: inconclusive: 0.251 µM [activator, full curve]

Question: With `CN(C)C(=O)c1ccc(-c2cc(Nc3ccccc3)ncn2)cc1` as the compound, how does the Potency read?
Answer: inconclusive: 10 µM [activator, single point]

Question: Which Potency does the source give for `CCNc1ncc2nc(-c3cc(F)cc(F)c3)c(=O)n(C)c2n1` here?
Answer: inconclusive: 1.26 µM [activator, full curve, poor fit]

System: not listed separately
Assay: qHTS Assay for Identification of Small Molecule Agonists for Hypoxia Response Element Signaling Pathway (AID 914; active means well fitted activation curve with a large enough effect in the signal ratio, with a control signal flat, not every such curve was filed as active; inconclusive means small, poorly fitted or top-dose-only effect, or effect the other way, or a change in a side signal; the % refers to the signal ratio; further: potency means the concentration at half of the fitted maximal effect; on activation: top concentration of the series differs between compounds; % of control where 0% means no effect)
Details: ME-180 (cervical carcinoma) HRE-bla reporter, beta-lactamase ratio, CoCl2, 17 h; activation: stronger effect = higher value
Procedure, shortened: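 Read-out: CCF4 FRET ratio of 460nm to 530nm emission (excitation 405nm) after 2.5 hours at room temperature, taken from HRE-bla ME-180 cells that had been exposed to compound and EC50 CoCl2 for 17 hours.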

Question: Which Potency does the source give for `CN1CCN(c2ncc3nc(-c4cc(F)cc(F)c4)c(=O)n(Cc4cccs4)c3n2)CC1` here?
Answer: active: 3.16 µM

Question: With `CN(C)c1ncc2nc(-c3ccc(Cl)cc3)c(=O)n(Cc3ccc(F)cc3)c2n1` as the compound, how does the Potency read?
Answer: active: 1.26 µM

Question: With `N#Cc1cccc(-c2nc3cnc(N4CCOCC4)nc3n(C3CC3)c2=O)c1` as the compound, how does the Potency read?
Answer: active: 3.16 µM

Question: Which activation does the source give for `Cc1cnc(CNc2nc(-c3ccoc3)nc3ccccc23)cn1` here?
Answer: inactive: -5.75%

Question: For `COc1ccc(-c2nc3cnc(OCc4ccccc4)nc3n(CCC#N)c2=O)cc1`, which Potency is on record?
Answer: inconclusive: 5.01 µM [fluorescent, side channel, single point]

Question: For `O=c1c(-c2ccc(Cl)cc2)nc2cnc(N3CCNCC3)nc2n1Cc1cccs1`, which Potency is on record?
Answer: inconclusive: 3.16 µM [fluorescent, side channel, partial curve]

Question: With `COc1cccc(Cn2c(=O)c(-c3ccc(Cl)cc3)nc3cnc(N4CCOCC4)nc32)c1` as the compound, how does the Potency read?
Answer: active: 1.58 µM

Question: With `Fc1ccc(Nc2ncnc3ccc(-c4ccoc4)cc23)cc1` as the compound, how does the Potency read?
Answer: inconclusive: 2.51 µM [inhibitor, partial curve]

Question: With `CCNc1ncc2nc(-c3cc(F)cc(F)c3)c(=O)n(C)c2n1` as the compound, how does the Potency read?
Answer: active: 3.16 µM
